In the antibiotic and cytotoxicity screens of Wong et al. (2023):
The list shows a part of the results.

Columns and labels:
[1] = system: HSkMC (human skeletal muscle cells); assay: cytotoxicity call (relative viability < 0.9); conditions: 10 µM
[2] = system: HepG2; assay: cytotoxicity call (relative viability < 0.9); conditions: 10 µM
[3] = system: S. aureus RN4220; assay: growth inhibition call (relative growth <= 0.2); conditions: 50 µM

C[C@H]1CN([C@@H](C)CO)C(=O)c2cc(NC(=O)Cn3cnnn3)ccc2O[C@H]1CN(C)Cc1ccc2c(c1)OCO2
inactive: cytotoxicity call [1] | cytotoxicity call [2] | growth inhibition call [3]

O=C(Nc1nnc2n1CCS2)C1CC1
inactive: cytotoxicity call [1] | cytotoxicity call [2] | growth inhibition call [3]

Cc1cnc(NC(=O)C2=C(O)c3ccccc3S(=O)(=O)N2C)s1
inactive: cytotoxicity call [1] | cytotoxicity call [2] | growth inhibition call [3]

C[C@@H]1CN([C@H](C)CO)C(=O)Cc2cc(NS(=O)(=O)c3cn(C)cn3)ccc2O[C@@H]1CN(C)CC1CC1
inactive: cytotoxicity call [1] | cytotoxicity call [2] | growth inhibition call [3]

CCS(=O)(=O)Nc1ccc2c(c1)C(=O)N(C)C[C@@H](OC)[C@@H](C)CN(Cc1nccs1)[C@H](C)CO2
inactive: cytotoxicity call [1] | cytotoxicity call [2] | growth inhibition call [3]

CN1C(=O)c2cc(NC(=O)c3ccc(F)cc3)ccc2OC[C@@H]2O[C@H](CC(=O)N3CCOCC3)CC[C@@H]21
inactive: cytotoxicity call [1] | cytotoxicity call [2] | growth inhibition call [3]

CNC[C@H]1Oc2ccc(NS(=O)(=O)c3cn(C)cn3)cc2C(=O)N([C@H](C)CO)C[C@H]1C
inactive: cytotoxicity call [1] | cytotoxicity call [2] | growth inhibition call [3]

C[C@H]1CN([C@@H](C)CO)C(=O)c2cccc(NS(=O)(=O)c3cccs3)c2O[C@H]1CN(C)Cc1ccncc1
inactive: cytotoxicity call [1] | cytotoxicity call [2] | growth inhibition call [3]

O=c1[nH]cc(NCc2ccccc2)c(=O)[nH]1
inactive: cytotoxicity call [1] | cytotoxicity call [2] | growth inhibition call [3]

CC(C)NC(=O)N(C)C[C@H]1Oc2ccc(NC(=O)c3ccncc3)cc2CC(=O)N([C@H](C)CO)C[C@H]1C
inactive: cytotoxicity call [1] | cytotoxicity call [2] | growth inhibition call [3]

C[C@@H]1CN([C@H](C)CO)C(=O)c2cccc(NC(=O)Nc3ccc(C(F)(F)F)cc3)c2O[C@H]1CN(C)C(=O)Nc1ccccc1
inactive: cytotoxicity call [1] | cytotoxicity call [2] | growth inhibition call [3]
